Assay results published in the supplement of paper PMC7826260.
Some of the results follow. Each Rep nickase domain was tested in vitro on the same pool of single strands at 3 µM enzyme and 37 °C for 1 h; the strands have 90 letters, of which the middle is given. Uncut reads are compared with the no-enzyme pool on a log2 scale; uncut sequences lie near 0, cut ones below; no hit call is given. Because reads are shares of a total, they shift together, so uncut sequences can rise above 0 when many others are cut.

These sequences were tested on T1, Rep nickase domain of tomato golden mosaic virus (assay: uncleaved DNA left, log2 of reads against the no-enzyme library (log2 ratio); higher = less cleavage (more negative = more Rep cleavage of the k-mer); sequences stand for … in CTCGTCCG…ACCGGAGA).
T1 sequence (Rep 1-124, printed without the tag): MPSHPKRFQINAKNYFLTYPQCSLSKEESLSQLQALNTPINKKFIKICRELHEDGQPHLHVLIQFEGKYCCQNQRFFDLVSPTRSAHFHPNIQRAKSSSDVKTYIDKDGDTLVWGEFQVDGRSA
Description: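 A pool of 90-nt single-stranded DNAs with seven random bases just before the constant AC of the nick site (name = the seven bases) was cut by 3 µM recombinant His6-SUMO-tagged Rep nickase domain (300 nM DNA, 50 mM HEPES pH 8.0, 50 mM NaCl, 1 mM MnCl2, 1 h, 37 °C, three replicates). Uncut DNA was amplified and sequenced.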

| Sequence | uncleaved DNA left (log2) |
| --- | --- |
| GGACTCC | -0.207 |
| CCAGAAC | 0.0135 |
| GTATCTC | 0.0748 |
| TCCATCG | -0.0191 |
| TTGAATA | 0.0291 |
| CCGAGCG | -0.0271 |
| TTTCGCT | -0.092 |
| ACCTGGT | 0.249 |
| CTCCGTC | -0.00211 |
| TCACCCT | -0.149 |
| TGACAAG | -0.0247 |
| AACCCCA | 0.0407 |
| CGTAGGA | 0.085 |
| TCACCAG | -0.047 |
| TGGGATG | 0.114 |
| CGTGAGT | 0.162 |
| GGGAAGA | 0.0553 |
| GCATGGG | -0.0173 |
| TCTCCAC | -0.131 |
| AAAGAGG | 0.167 |

| Sequence | uncleaved DNA left (log2) |
| --- | --- |
| CAACTCT | -0.23 |
| CTGGCTT | -0.294 |
| TTGGACT | -0.0752 |
| CTGTGAT | 0.125 |
| GCGCTGA | -0.178 |
| CAGTGTA | 0.00332 |
| TTCTCTC | -0.0555 |
| CACCCAG | 0.124 |
| ATACCCA | 0.0976 |
| TCACGAC | 0.123 |
| CGGCGGT | 0.0487 |
| TTCGTTG | -0.125 |
| TTGGCGT | -0.217 |
| ATCACTA | -0.0145 |
| AGTAACC | 0.123 |
| AAGGGGA | 0.0144 |
| AAAATAG | 0.0652 |
| CGCTGGA | 0.0449 |
| CCAAGTG | -0.0392 |
| GAGCGGC | 0.0515 |
